According to the RNAGym collection of RNA variant scans (doi:10.1093/nar/gkz1192):
Read counts are not given, so values of variants with three or more changes are uncertain.

B1: CPEB3 Ribozyme (parent)
chain: UAACAGGGGGCCACAGCAGAAGCGUUCACGUCGCAGCCCCUGUCAGAUUCUGGUGAAUCUGCGAAUUCUGCUGUAUAUCUC

Variants of: B1
Test: self-cleavage, relative activity (ratio to wild type); higher = more cleavage; in vitro, sequencing
Procedure, shortened: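 Libraries of CPEB3 self-cleaving ribozyme mutants came from rounds of error-prone PCR and carried barcodes, which DNA sequencing matched to variants. In vitro transcription used T7 RNA polymerase at 37°C for 5 hours, with a further 15 min in DNase I before EDTA stopped the reaction; the ribozymes cleaved during both steps. The RNA was reverse transcribed with template switching and sequenced on Illumina. Relative activity is the cleaved/total read fraction of a variant divided by that of the unmutated ribozyme, averaged over three batches with at least 5 reads.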
Work on UAACAGGGGGCCACAGCAGAAGCGAUCACGUCGCAGCCCCUGACAGAUUCUGGUGAAUCUGCGAACUCUACUGUAUACCUC [U25A U43A U66C G70A U78C] yielded a self-cleavage of 0.07.
For UAACAGGGGGCCACAGCAGAAGCGAUCACGUCGCAGCCCCUGACAGAUUCUGGUGAAUCUGCGAAUCCUGCUGUAUAUCUC [U25A U43A U67C], the self-cleavage was 0.17.
UAACAGGGGGCCACAGCAGAAGCGAUCACGUCGCAGCCCCUGCCAGAUUCUGGUGAAUCUGCGAAUUCUGCCGUAUAUCUC [U25A U43C U72C] gave a self-cleavage of 0.27.
Variant UAACAGGGGGCCACAGCAGAAGCGAUCACGUCGCAGCCCCUGUCAGACUCUGGUGAAUCUGCGGAUUCUGCUGUAUAUCCC [U25A U48C A64G U80C] has a self-cleavage of 0.09.
Variant UAACAGGGGGCCACAGCAGAAGCGAUCACGUCGCAGCCCCUGUCAGACUCUGGAGAAUCUGCGAAUUCUGCUGUAUAUCUC [U25A U48C U54A] has a self-cleavage of 0.33.
Work on UAACAGGGGGCCACAGCAGAAGCGAUCACGUCGCAGCCCCUGUCAGACUCUGGUGAAUCUGCGAAUUCUGCUGCAUAUCCC [U25A U48C U74C U80C] yielded a self-cleavage of 0.23.
UAACAGGGGGCCACAGCAGAAGCGAUCACGUCGCAGCCCCUGUCAGAGUCUGGUGGAUCUGCGGAUUCUGCUGCAAAUCUC [U25A U48G A56G A64G U74C U76A] gave a self-cleavage of 0.08.
Work on UAACAGGGGGCCACAGCAGAAGCGAUCACGUCGCAGCCCCUGUCAGAUCCUGGUGAAUCUGCGAAUUCUGCUGUAUUUCUC [U25A U49C A77U] yielded a self-cleavage of 0.1.
For UAACAGGGGGCCACAGCAGAAGCGAUCACGUCGCAGCCCCUGUCAGAUUCAGGAGAUUCUGCGGAUUCUGCUGCAUCUCUC [U25A U51A U54A A57U A64G U74C A77C], the self-cleavage was 0.08.
For UAACAGGGGGCCACAGCAGAAGCGAUCACGUCGCAGCCCCUGUCAGAUUCCGGUGAAUCUGCGAAUUCCGCCGUAUAUCUC [U25A U51C U69C U72C], the self-cleavage was 0.12.
In the case of UAACAGGGGGCCACAGCAGAAGCGAUCACGUCGCAGCCCCUGUCAGAUUCCGGUGAAUCUGCGAAUUCUGCUGUACAUCUC [U25A U51C U76C], the self-cleavage is reported as 0.13.
In the case of UAACAGGGGGCCACAGCAGAAGCGAUCACGUCGCAGCCCCUGUCAGAUUCUGGUGAAUCCGCGAAUUCUGCUGCAUAUCUC [U25A U60C U74C], the self-cleavage is reported as 0.1.
For UAACAGGGGGCCACAGCAGAAGCGAUCACGUCGCAGCCCCUGUCAGAUUCUGGUGAAUCUGCGAAUUCUGCGGUACAUCUC [U25A U72G U76C], the self-cleavage was 0.12.
With UAACAGGGGGCCACAGCAGAAGCGAUCACGUCGCAGCCCCUGUCAGAUUCUGGUGAAUCUGCGAAUUCUGCUGUACAACUC [U25A U76C U78A] the self-cleavage was 0.2.
UAACAGGGGGCCACAGCAGAAGCGCUCGCGUCGCAGCCCCUGUCGGAUUCUGGUGAAUCUGCGAAUUCUGCUGUAUAUCUC [U25C A28G A45G] gave a self-cleavage of 0.29.
In the case of UAACAGGGGGCCACAGCAGAAGCGCUCGCGUCGCAGCGCCUGUCAGAUUCAGGUGAACCUGCGAAUUCUGCUGUAUAUCUC [U25C A28G C38G U51A U58C], the self-cleavage is reported as 0.07.
Variant UAACAGGGGGCCACAGCAGAAGCGCUCGCGACGCAGCCCCCGUCAGAUUCUGGUGAAUCUGCGAAUUCUGCAGUAUAUCUC [U25C A28G U31A U41C U72A] has a self-cleavage of 0.09.
UAACAGGGGGCCACAGCAGAAGCGCUCGCGUCGCAGCCCCUGUCAGACUCUGGUGAAUCUGCGGAUUCUGCUGUAUAACUC [U25C A28G U48C A64G U78A] showed a self-cleavage of 0.06.
With UAACAGGGGGCCACAGCAGAAGCGCUCGCGUCGCAGCCCCUGUCAGAUCCAAGUGAAUCUGCGAAUUCUGCCGCAUAUCUC [U25C A28G U49C U51A G52A U72C U74C] the self-cleavage was 0.06.
With UAACAGGGGGCCACAGCAGAAGCGCUCGCGUCGCAGCCCCUGUCAGAUUCAGGUGAAUCUGCGAAUUCUGCCGUAUACCUC [U25C A28G U51A U72C U78C] the self-cleavage was 0.21.
With UAACAGGGGGCCACAGCAGAAGCGCUCGCGUCGCAGCCCCUGUCAGAUUCUGGGGAAUCUGCGAAUUCUGCUGUAUAUCUC [U25C A28G U54G] the self-cleavage was 0.11.
In the case of UAACAGGGGGCCACAGCAGAAGCGCUCGCGUCGCAGCCCCUGUCAGAUUCUGGUGAAUCAGCGAAUUCUGCUGUAUAUCUC [U25C A28G U60A], the self-cleavage is reported as 0.23.
UAACAGGGGGCCACAGCAGAAGCGCUCGCGUCGCAGCCCCUGUCAGAUUCUGGUGAAUCUGCGAACUCUGCUGUAUAUCUC [U25C A28G U66C] gave a self-cleavage of 0.2.
Variant UAACAGGGGGCCACAGCAGAAGCGCUCGCGUCGCAGCCCCUGUCAGAUUCUGGUGAAUCUGCGAAUUCUGCUGUAUACCUC [U25C A28G U78C] has a self-cleavage of 0.14.
UAACAGGGGGCCACAGCAGAAGCGCUCUCGUCUCAGCCCCUGUCAGAUUCAGGUGAAUCAGCGAAUUCUGCUGUAUAUCUC [U25C A28U G33U U51A U60A] showed a self-cleavage of 0.08.
Work on UAACAGGGGGCCACAGCAGAAGCGCUCUCGAAGCAGCCCCUGUCAGAUUCUGGUGAAUCUGCGAAUUCUGCUGUAUAUCUC [U25C A28U U31A C32A] yielded a self-cleavage of 0.12.
UAACAGGGGGCCACAGCAGAAGCGCUCUCGUCGCAGCCCCUGCCAGAUUCUGGUGGGUCUGCGAAAUCUGCUGUAUAUCCC [U25C A28U U43C A56G A57G U66A U80C] gave a self-cleavage of 0.15.
Work on UAACAGGGGGCCACAGCAGAAGCGCUCUCGUCGCAGCCCCUGUCAGAUUCCGGUGAAUCUGCGAAUUCUGCCGUAUAUCUC [U25C A28U U51C U72C] yielded a self-cleavage of 0.1.
In the case of UAACAGGGGGCCACAGCAGAAGCGCUCUCGUCGCAGCCCCUGUCAGAUUCUGGUGAAUCCGCGAACUCUGCUGUACAACUC [U25C A28U U60C U66C U76C U78A], the self-cleavage is reported as 0.05.
UAACAGGGGGCCACAGCAGAAGCGCUCACGUCGCCGCCCCGGUCAGAUUCUGGUGAAUCUGCGAAUUCUGCUGUAUAUCUC [U25C A35C U41G] gave a self-cleavage of 0.3.
UAACAGGGGGCCACAGCAGAAGCGCUCACGUCGCGGCCCCUGUCAGAUUCUGGUGAAUCUGCGGAUUCUGCUGUAUACCUC [U25C A35G A64G U78C] showed a self-cleavage of 0.12.
In the case of UAACAGGGGGCCACAGCAGAAGCGCUCACGUCGCGGCCCCUGUCAGAUUCUGGUGAAUCUGCGAAUUCUGCUGUGUAUCUC [U25C A35G A75G], the self-cleavage is reported as 0.24.
UAACAGGGGGCCACAGCAGAAGCGCUCACGUCGCGGUCCCUGUCAGAUUCUGGUGAAUCUGCGAAUUCUGCUGUAUAUCUC [U25C A35G C37U] showed a self-cleavage of 0.15.
Variant UAACAGGGGGCCACAGCAGAAGCGCUCACGUCGCGGCCUCUGUCAGAUUCUGGUGAAUCUGCGAAUUCUGCUGUAUAUCUC [U25C A35G C39U] has a self-cleavage of 0.24.
